Source: PubChem BioAssay AID1347073 (National Center for Advancing Translational Sciences (NCATS), 2019)
The whole screen tested about 45,000 compounds, of which about 200 (0.44%) were called active. About 7% were inconclusive and are not listed. The call rests on the fitted dose curve; in most records, active means well fitted activation curve with a large enough effect; inconclusive means small, poorly fitted or top-dose-only effect; inactive means no such curve, though single readings can be large or run the other way. The list shows a part of the results.

Test: qHTS of TDP-43 Inhibitors: NCGC Sytravon Library Screen; further: 0% is about no effect; nearly all actives have a fitted effect of over 55% in size
Conditions: yeast TDP-43 toxicity rescue, BacTiter-Glo growth, 24 h; series mostly up to 46.1 µM; growth rescue (activation): at the top concentration
How it was run: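 TDP-43-expressing yeast, pregrown in raffinose, seeded at OD600 0.02 in galactose medium with compound for 24 hr at 30 deg C. Growth read by BacTiter-Glo luminescence, so rescue of toxicity appears as activation.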

Row | Structure (SMILES) | growth rescue (activation)
1 | CC1=[N+](CC(=O)c2ccccc2)CCn2cccc21 | inactive: 2.27%
2 | Oc1ccc(O)c(Cc2nc3ccccc3[nH]2)c1 | inactive: 2.58%
3 | CCc1ccc(C(O)c2ncc(-c3cccc(C)c3)[nH]2)cc1 (stereo unspecified) | inactive: 10.7%
4 | CS(=O)(=O)c1ccc(C(=O)NCCN2C(=O)S/C(=C\c3cccnc3)C2=O)cc1[N+](=O)[O-] | inactive: 3.72%
5 | CC(=O)Nc1ccc(S(=O)(=O)NNC(=O)CCc2ccccc2)cc1 | inactive: 12.5%
6 | O=C(NCc1ccco1)C1CCN(c2ccc(S(=O)(=O)N3CCOCC3)cc2[N+](=O)[O-])CC1 | inactive: 1.13%
7 | Cc1cc(C)c(C(=O)Cn2nc(C(=O)O)c3ccccc3c2=O)cc1C | inactive: 22.8%
8 | O=C(N/N=C/c1cccc(Cl)c1)c1c(O)c2c([nH]c1=O)CCCC2 | inactive: 8.16%
9 | O=C(CCNS(=O)(=O)c1c(Cl)cccc1Cl)OCC(=O)c1ccccc1F | inactive: -1.06%
10 | Cc1ccn2cc(C34CC5CC(CC(C5)C3)C4)nc2c1 | inactive: 5.9%
11 | Cc1ccccc1/C=C/c1nc2ccccc2c(=O)[nH]1 | inactive: 1.99%
12 | CN(C(=O)CS(=O)(=O)Cc1ccccc1Cl)c1ccccc1 | inactive: 17.3%
13 | O=C(CC12CC3CC(CC(C3)C1)C2)Nc1ccccc1N1CCOCC1 | inactive: 8.1%
14 | COc1ccc(CCN(C)Cc2c(O)ccc3cc(Br)ccc23)cc1OC | inactive: 9.83%
15 | c1ccc(-c2noc(-c3ccc4c(c3)OCO4)n2)cc1 | inactive: 0.714%
16 | CCOc1cc(/C=N/N=C2/NC(=O)C(CC(=O)O)S2)ccc1OS(=O)(=O)c1ccc(C)cc1 (stereo unspecified) | inactive: 14.2%
17 | CC(C)(C)NC(=O)COc1ccccc1C#N | inactive: 0.0885%
18 | CCc1ccc(S(=O)(=O)c2ccc(-n3nc(C)cc3N)cc2)cc1 | inactive: -5.33%
19 | Cc1cccc(OCC(=O)NCCCNC(=O)c2ccco2)c1 | inactive: -3.48%
20 | Cc1cccnc1C(NC(=O)C1CCN(Cc2cn(C)c3ccccc23)CC1)c1ccc(Cl)cc1 (stereo unspecified) | inactive: 3.99%
21 | Cn1c(COc2ccccc2)nnc1SCC(=O)NC1CCCC1 | inactive: 1.05%
22 | CCC(C(=O)NCC1CCCO1)N(Cc1ccc(F)cc1)C(=O)CNS(=O)(=O)c1ccccc1 (stereo unspecified) | inactive: 9.24%

Row | Structure (SMILES) | growth rescue (activation)
23 | CC(C)CNC(=O)C1CCCN(C(=O)NCc2ccccc2)C1 (stereo unspecified) | inactive: -3.4%
24 | COc1ccc(/C=N/NC(=O)c2snnc2C)c(OC)c1OC | inactive: 6.89%
25 | CCOc1ccc(-c2n[nH]c(=S)c3ccccc23)cc1 | inactive: 5.35%
26 | CC(C)n1cnc2cc(NC(=O)c3ccco3)ccc21 | inactive: -19.9%
27 | COc1ccccc1Cn1c(-c2ccco2)nc2nc3ccccc3nc21 | inactive: 31.1%
28 | CC(C)/C=C1\CCc2c([nH]c3ccccc23)C1=O | inactive: 23.2%
29 | COc1ccc(NC(C)=O)cc1S(=O)(=O)NC1CCSc2ccccc21 (stereo unspecified) | inactive: 0.135%
30 | CN1c2ccccc2C2(C)CCCC3=Cc4cc([N+](=O)[O-])cc([N+](=O)[O-])c4OC312 (stereo unspecified) | inactive: -8.2%
31 | O=C(COC(=O)/C=C/c1cccc(F)c1)NNC(=O)c1ccccc1 | inactive: -0.206%
32 | CCc1nc2ccc(C(=O)N3CCN(S(=O)(=O)CC)CC3)cn2c1N(C)C(=O)c1cccc(OC)c1 | inactive: -10%
33 | CN(CCc1ccccn1)C(=O)CCC1CCCN(C(=O)c2n[nH]c3c2CCCC3)C1 (stereo unspecified) | inactive: 4.02%
34 | Cc1ccc(N=Cc2c(C)[nH]n(-c3nc4ccccc4[nH]3)c2=O)cc1 | inactive: -83.8%
35 | CCn1cc(C(=O)NCC(C)C)c(=O)c2cc(F)c(N3CCN(C(=O)c4ccco4)CC3)cc21 | inactive: 11.4%
36 | CCc1cc(C(=O)OC)c(NC(=O)CC2SC(N)=NC2=O)s1 (stereo unspecified) | inactive: -4.99%
37 | Cc1ccc(NC(=S)N(CCN(C)C)C(C)c2ccco2)cc1C (stereo unspecified) | inactive: 3.15%
38 | CCOc1ccc(N2C(=O)S/C(=C\c3cc(OC)c(OC)c(OC)c3)C2=O)cc1 | inactive: 4.14%
39 | c1ccc(Nc2nc(-c3cccnc3)cs2)nc1 | inactive: 13.7%
40 | O=C(O)c1ccccc1-c1ccc(/C=C/c2cc(C(F)(F)F)[nH]c(=O)n2)o1 | inactive: 9.74%
41 | COc1ccc(C(=O)C2CCCN(C(=O)Cn3ccc(C)n3)C2)cc1OC (stereo unspecified) | inactive: 16.6%
42 | Cn1c(N)c(C(=O)COC(=O)c2cccs2)c(=O)n(C)c1=O | inactive: -8.15%
43 | COc1cccc(N=C2NC(=O)/C(=C/c3cc([N+](=O)[O-])ccc3O)S2)c1 | inactive: -2.77%
44 | CC(CCc1ccccc1)NC(=O)c1ccc(NC(=O)c2ccccc2)cc1 (stereo unspecified) | inactive: -1.35%

Row | Structure (SMILES) | growth rescue (activation)
45 | CSc1ccc(CN(C)C(C)C(=O)NCC2CCCCC2)cc1 (stereo unspecified) | inactive: -6.95%
46 | O=C(COC(=O)CNC(=O)c1ccc(Cl)cc1Cl)Nc1ccc(N2CCOCC2)cc1 | inactive: 0.839%
47 | Cc1noc(C(=O)Nc2cccnc2Cl)c1Cl | inactive: 4.8%
48 | CCOC(=O)c1cc(C)sc1NC(=O)CSc1nnnn1C | inactive: -8.28%
49 | COc1cccc2cc(C(C)N(CCCN3CCOCC3)C(=S)Nc3ccc(C)c(C)c3)oc12 (stereo unspecified) | inactive: 5.71%
50 | Cc1cc2nc(-c3cccc(NC(=O)c4cccc5ccccc45)c3)oc2cc1C | inactive: 1.07%
51 | CCCCOc1ccc2c(c1)/C(=C(\C(Cl)=C(Cl)Cl)[N+](=O)[O-])N2 | inactive: 1.66%
52 | O=C(CSCc1ccc(Br)cc1)NC1CC1 | inactive: 14.9%
53 | C/C=C/c1ccc(OCC(=O)O)c(OC)c1 | inactive: 0.147%
54 | COCCNC(=O)C1(C)CCCN(C(=O)c2cccc(C(F)(F)F)c2)C1 (stereo unspecified) | inactive: -14.6%
55 | CCOc1ccc(C(=O)N2CCN(c3cnn(-c4ccccc4)c(=O)c3Cl)CC2)cc1 | inactive: -16.9%
56 | CC(=O)Nc1ccc(NC(=O)C2CCN(c3ccc(C(F)(F)F)cn3)CC2)cc1 | inactive: 10.7%
57 | COC(c1ccccc1)c1nnc(CCC(=O)N2CCN(CCOc3ccccc3)CC2)o1 (stereo unspecified) | inactive: 13.8%
58 | COc1ccc(OCC(=O)N2N=C(C)CC2(O)C(F)(F)F)cc1 (stereo unspecified) | inactive: 15.2%
59 | Cc1ccc(-n2ncc3c2CCCC3NC(=O)CCc2cnccn2)cc1C (stereo unspecified) | inactive: 28.7%
60 | CCOC(=O)c1c(NC(=O)CN2CCN(C(=O)C3CCCO3)CC2)sc(C)c1C (stereo unspecified) | inactive: -3.13%
61 | CCOc1ccc(C(=O)NC(=S)N2CCN(c3ccc(C(F)(F)F)cc3[N+](=O)[O-])CC2)cc1 | inactive: 20.2%
62 | CCCNC(=O)C1(C)CCCN(C(=O)c2cc(C)nn2C(C)(C)C)C1 (stereo unspecified) | inactive: -4.51%
63 | O=C(COc1ccc(Cl)cc1Cl)NCC1(N2CCOCC2)CCCCC1 | inactive: -9.31%
64 | COc1ccc(C(=O)NNC(=O)CSc2nnc(-c3cccnc3)n2C)cc1 | inactive: 10%
65 | COc1ccc(CCNC(=O)Nc2nnc([C@@H]3C[C@H](O)[C@@H](CO)O3)s2)cc1OC | inactive: -10.8%
66 | CCCC(C(=O)NC1CCCC1)N(C(=O)c1snc(C(N)=O)c1N)c1ccc(F)cc1 (stereo unspecified) | inactive: 0.565%

Row | Structure (SMILES) | growth rescue (activation)
67 | OCCC1CN(Cc2cccn2-c2ncccn2)CCN1Cc1ccc(F)cc1 (stereo unspecified) | inactive: 11.5%
68 | CC(=O)c1ccc(NC(=O)C(C)NCc2ccccc2Cl)cc1 (stereo unspecified) | inactive: 8.19%
69 | CC(=O)c1ccc(NC(=O)Cc2ccsc2)cc1 | inactive: 15.2%
70 | O=C(/C=C/c1cccc(Cl)c1)Nc1ncccn1 | inactive: -1.07%
71 | COc1ccc(CCNC(=O)c2ccc(-c3ccc([N+](=O)[O-])cc3)o2)cc1OC | inactive: 11.1%
72 | COCCn1c(C)cc(C(=O)CSc2nc3ccccc3c(=O)n2C(C)COC)c1C (stereo unspecified) | inactive: -12.9%
73 | COc1ccc(-c2nnc(SCC(=O)c3ccco3)n2-c2ccccc2)cc1 | inactive: 26.9%
74 | Cc1ccc(O)c(NS(=O)(=O)c2cccc3nsnc23)c1 | inactive: 28.7%
75 | CCN1CCSc2ccc(C(=O)NCc3ccc(OC(C)C)cc3)cc21 | inactive: 8.04%
76 | COc1cccc(NC(=S)N/N=C2\CC3CCC2(C)C3(C)C)c1 (stereo unspecified) | inactive: 26.6%
77 | O=C(CCc1nc(-c2cccs2)no1)Nc1cnc2ccccc2c1 | inactive: 10.9%
78 | CS(=O)(=O)N(CC(=O)NCc1ccco1)c1ccc(OCc2ccccc2)cc1 | inactive: -6.14%
79 | CC(O)CNc1nc2sc3c(c2c(=O)n1CCc1ccccc1)CCCCC3 (stereo unspecified) | inactive: -15.1%
80 | CCCCN1C(=O)c2ccc(C(=O)N(C)CC(=O)Nc3ccc(OCC)c(OCC)c3)cc2C1=O | inactive: 22.6%
81 | O=C(Nc1cccc(F)c1)NC1(C(=O)NCC2CCCO2)CCCCC1 (stereo unspecified) | inactive: 11.3%
82 | COCCCNc1nc2nonc2nc1N1CCN(C2CCCC2)CC1 | inactive: 2.93%
83 | COc1ccc(-n2nc(C(=O)NCC(=O)NCc3ccc(F)cc3)c3ccccc3c2=O)cc1OC | inactive: -3.69%
84 | Cc1cccn2c(=O)c3cc(C(=O)NCC4CCCO4)c(=N)n(CCN4CCOCC4)c3nc12 (stereo unspecified) | inactive: 23%
85 | Clc1ccc(C2=NN(c3ccccc3)C(c3ccco3)C2)cc1 (stereo unspecified) | inactive: 15.3%
86 | CCc1ccc(CN2CCC(CO)(CC3CCCCO3)CC2)o1 (stereo unspecified) | inactive: 10.8%
87 | Cc1cccc(NC(=O)CSc2nc3c(c(=O)[nH]2)CCC3)c1C | inactive: 4.62%
88 | Cc1ccc2c(COC(=O)CC3Sc4ccccc4NC3=O)cc(=O)oc2c1C (stereo unspecified) | inactive: 7.53%

Row | Structure (SMILES) | growth rescue (activation)
89 | Cc1ccc(-c2nnn(CC(=O)NC(=O)NC3CCCCC3)n2)cc1 | inactive: 23.5%
90 | CCn1c(C)nnc1SCC(=O)Nc1ccc(N2CCOCC2)cc1 | inactive: -6.85%
91 | Cc1ccc(-n2cccn2)c(CN2CCCC(C(=O)c3ccc4c(c3)OCO4)C2)c1 (stereo unspecified) | inactive: -12.1%
92 | O=C(O)C1CCCCC1C(=O)N1CCCC1 (stereo unspecified) | inactive: 5.63%
93 | COc1ccc(OCC(=O)Nc2ccc3oc(-c4ccncc4)nc3c2)cc1 | inactive: 3.06%
94 | COc1ccc(-c2nnc(SCC(=O)NNC(=O)c3ccc(C)cc3)o2)cc1 | inactive: 12.5%
95 | Cc1ccccc1Oc1nc2ccccn2c(=O)c1/C=C(\C#N)c1nc2ccccc2[nH]1 | inactive: 8.81%
96 | CN(C)c1ccc(NC(=O)CN2CCc3ccccc3C2)cc1 | inactive: 12.8%
97 | N#CCCN(C(=O)CN1CCN(S(=O)(=O)c2ccc(Cl)s2)CC1)c1ccc(F)cc1 | inactive: 15.1%
98 | CCOc1ccc(OCc2ccc(C(=O)NN=Cc3ccc[nH]3)cc2)cc1 | inactive: 9.74%
99 | CCOc1ccccc1NC(=O)C(OC(=O)c1ccccc1)c1ccccc1 (stereo unspecified) | inactive: 17.1%
100 | Cc1cc(NC(=O)COC(=O)C2COc3ccccc3O2)no1 (stereo unspecified) | inactive: 16.8%
101 | O=[N+]([O-])c1ccc(CSC2=NCCS2)cc1 | inactive: 27.6%
102 | COC(=O)C(C)NC(=O)COc1ccc2ccccc2c1 (stereo unspecified) | inactive: -17.5%
103 | COc1cc(C)c(COc2ncnc3ccccc23)cc1OC | inactive: -3.53%
104 | COc1cc2c(cc1NC(=S)NC(=O)/C=C/c1ccco1)oc1ccccc12 | inactive: -1.45%
105 | COc1ccc(/C(O)=C2/C(=O)C(=O)N(c3ncccn3)C2c2ccc(F)cc2)cc1 (stereo unspecified) | inactive: -10.3%
106 | COc1cc(NC(=O)CCc2c(C)[nH]c(=O)c(C#N)c2C)cc(OC)c1 | inactive: 7.45%
